Reference: the BET-seq Pho4 binding data (Le et al. 2018)
The other results are listed elsewhere or left out. These are noisy estimates, calculated here from bound and input reads.

target: T1, Pho4 (S. cerevisiae) (UniProt P07270); assay: relative binding free energy (BET-seq); higher = weaker binding; details: reference: library average
T1 sequence: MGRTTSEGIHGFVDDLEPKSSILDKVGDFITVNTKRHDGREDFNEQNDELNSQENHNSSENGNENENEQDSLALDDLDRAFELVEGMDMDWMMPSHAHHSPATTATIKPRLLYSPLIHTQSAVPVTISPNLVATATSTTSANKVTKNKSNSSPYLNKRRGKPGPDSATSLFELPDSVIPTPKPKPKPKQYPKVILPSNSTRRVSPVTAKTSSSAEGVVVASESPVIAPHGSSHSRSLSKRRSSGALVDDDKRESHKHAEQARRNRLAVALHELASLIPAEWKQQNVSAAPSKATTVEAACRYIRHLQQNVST

Sequence	relative binding free energy [kcal/mol]
ATAGCCACGTGGTGAG	-0.14
ATGTACACGTGCTGTG	0.03
AGTTGCACGTGAGTAG	0.2
TTGGACACGTGTTTCA	0.04
ATAGCCACGTGGATGT	-0.12
GTCAGCACGTGAGGTC	0.37
AGGGTCACGTGAAAGG	0.38
TGGTCCACGTGGGCGA	-0.12
GGATGCACGTGAGTTA	0.36
AGATACACGTGGTGTG	-0.12
TGGACCACGTGAGTGG	0.05
TACATCACGTGTTTGG	0.07
GTTTACACGTGGAGTA	0.1
AGGATCACGTGGGGCC	0.13
GTTTGCACGTGTTGGC	0.1
GGGGCCACGTGGATTA	-0.02
TGGAGCACGTGCGTTT	-0.2
AGTTACACGTGAAGTG	0.27
AGGGTCACGTGGGATG	0.14
TGCTTCACGTGTTTGA	0.21
GGTTGCACGTGAGCGT	0.21
AAAATCACGTGTGTTA	0.25
AGGCTCACGTGGAAGG	0.11
ATGCGCACGTGGGAGG	-0.32
AAAGTCACGTGATAAT	0.33
GGTTCCACGTGTGATG	0.2

Sequence	relative binding free energy [kcal/mol]
TTTATCACGTGGCGTG	0.04
TACAGCACGTGGTTGT	-0.29
AATGGCACGTGGGAGT	-0.14
TAAGTCACGTGTTGCG	0.05
GGTATCACGTGTTCGG	0.09
TTATTCACGTGTTAGA	0.06
GAGTGCACGTGGATGA	0.14
GTGGCCACGTGTGTCG	0.05
TGGGTCACGTGTCGTT	0.03
CTGGACACGTGTTGGT	0.04
TGTTCCACGTGTTTCT	0.06
TGTTTCACGTGTGTAG	0.24
TCTAGCACGTGGTAGG	-0.03
AAGTGCACGTGGTTTG	-0.02
TGGACCACGTGTTGGC	0.09
ACTGGCACGTGGCGGT	-0.23
ACGGTCACGTGCGGTG	0.06
TGATTCACGTGGTTGG	0.24
TTGCGCACGTGTGTTG	0
GTGGTCACGTGTTTTT	0.27
AAGCGCACGTGGTTTT	-0.09
TGTGCCACGTGTCGTG	-0.14
GGAGACACGTGGGCAG	-0.1
TAGGGCACGTGGCATA	-0.16
TTGTTCACGTGGGGTG	0.14
TTGTGCACGTGAGCTC	0.26

Sequence	relative binding free energy [kcal/mol]
ATTAACACGTGTTGCG	-0.06
CAGGGCACGTGAATTT	0.32
AATAGCACGTGGTGTC	-0.1
TGTCTCACGTGTGCGT	0.12
AGTTGCACGTGTGAGA	0.08
TGGACCACGTGTTTAG	0.05
TTAGTCACGTGATAGT	0.17
TGGGACACGTGGGACG	-0.13
CGGGACACGTGTAGTT	0.09
ATGCGCACGTGAGGTA	0.04
GCATACACGTGGTTGT	0.04
GAAGGCACGTGATTTT	0.07
ATTGGCACGTGGCAGA	-0.14
AGTTTCACGTGGAGGC	0.23
TATGACACGTGATGGA	0.22
TAGTGCACGTGGGCCG	-0.24
TCGGGCACGTGGGCGC	-0.25
TAAGGCACGTGAGTAG	0.06
TATTGCACGTGGGAGA	-0.07
AGGGTCACGTGAAGCA	0.26
TGCGGCACGTGGAGCT	-0.13
TGCGGCACGTGTCAAG	-0.08
GTTAACACGTGGCGGA	0.04
TGTGGCACGTGGACAT	-0.15
TGCGTCACGTGTTTCG	0
TATAGCACGTGCGGTT	-0.1

Sequence	relative binding free energy [kcal/mol]
TTGAGCACGTGTGGTA	0.02
TTTTACACGTGTACTT	0.16
GTCTGCACGTGCGAGT	0.08
GTGTCCACGTGGTTTT	0.1
GTATTCACGTGGAGTA	0.33
TGTTTCACGTGGCCTG	0.07
GCTGTCACGTGTGATT	0.36
GTAGTCACGTGATGGT	0.31
TAGTACACGTGGTGCA	0.13
TGTGACACGTGATTAG	0.04
TTAGTCACGTGGTCGG	0.01
GAGGCCACGTGTGAGT	-0.05
TTTCGCACGTGGGTGT	-0.11
TCGTACACGTGTTTGC	0.15
TTACTCACGTGCTGGT	0.3
TGTATCACGTGTTAGG	0.06
ATCGACACGTGGTCGT	0.04
TGTGGCACGTGGGAGA	-0.13
ATTATCACGTGTTTGC	-0.01
TTGCTCACGTGCAGTG	0.18
CGACTCACGTGGAGGG	0.16
TGTTCCACGTGTCGTT	0.11
GTTGGCACGTGCTTTT	-0.08
TAGGTCACGTGTGTCA	-0.07
AGGTTCACGTGGATGA	0.18
GCAAGCACGTGTTTGG	-0.05

Sequence	relative binding free energy [kcal/mol]
CTAGTCACGTGTTGGT	0.1
CTGATCACGTGTTGTG	0.09
GGAATCACGTGGGGTA	0.09
GCGTACACGTGGCGGG	0.04
CTTCGCACGTGTGAGG	-0.01
TGATTCACGTGCGTAG	0.24
GGCCGCACGTGTAGGT	-0.03
TAGGGCACGTGGTACG	-0.19
AAGGGCACGTGGTTTA	-0.1
TGTGTCACGTGAAATG	0.26
GCGATCACGTGTTTGT	0.14
TGTATCACGTGCGCGT	-0.11
TCGGACACGTGGGGAG	-0.09
GCGGGCACGTGGGACT	-0.22
AATTACACGTGGTTGA	0.09
GTAGACACGTGAAGTG	0.3
GTATGCACGTGCGGGT	-0.05
AGATCCACGTGTGGTA	0.09
GTTTACACGTGGTCGG	0.15
GGGTGCACGTGTTGTA	0.12
GATGGCACGTGGTGTT	-0.03
TCCGGCACGTGGTTGT	0.02
CTGAACACGTGTGTGG	-0.04
TTGGCCACGTGGAGTT	-0.23
TGTAACACGTGAATTT	0.17
GTATTCACGTGGTATT	0.2

Sequence	relative binding free energy [kcal/mol]
GGCAACACGTGAGTGG	0.23
AGTCTCACGTGGCGTG	0.11
AGAGGCACGTGTGGAG	-0.03
TTGGGCACGTGTAGCT	0.06
GAGTACACGTGTGTCT	0.18
AATGGCACGTGATGGG	0.01
GCTTTCACGTGGTCTG	0.35
TTATCCACGTGTGCTG	0.06
ATCGTCACGTGTGGAA	0.03
AATTTCACGTGTGAAG	0.38
TTATACACGTGAGCTG	0.28
TGATACACGTGAGTAG	0.14
GGGCACACGTGGGGGG	-0.01
GAGGGCACGTGATGCG	-0.05
TGTGTCACGTGGGCGT	-0.16
GTGTGCACGTGATGCT	0.17
TGTAACACGTGTAGGT	0.13
GAAAGCACGTGCGGGT	-0.12
GGCGTCACGTGGGATG	0.03
CTGTGCACGTGTAATG	-0.03
GGTTTCACGTGCCTTT	0.24
TCTAGCACGTGTGTGT	-0.14
CGGGTCACGTGTCAGT	0.15
AATATCACGTGGCGGG	0.1
CTAGTCACGTGTTTAA	0.25
TGGTCCACGTGGCATG	-0.05

Sequence	relative binding free energy [kcal/mol]
GAGTTCACGTGTGGGT	0.38
TACTGCACGTGTGTGG	0.11
GGTTTCACGTGAATGA	0.49
TGTTTCACGTGTCTCG	0.28
AGGGGCACGTGACGGA	-0.03
CTGTCCACGTGTTGTA	0.05
GGAAGCACGTGGGATT	-0.07
GATGACACGTGTTATG	0.05
GACGTCACGTGGGTAG	0.05
TCGGGCACGTGTACGT	-0.07
TGTATCACGTGGAGGA	0
CGTGCCACGTGGTGAG	-0.23
GCTTTCACGTGGTGTG	0.22
GGTTCCACGTGATTTG	0.32
TTGATCACGTGATCTT	0.24
TAGGGCACGTGCGGGG	-0.13
AGATTCACGTGGTCAG	0.24
TGGTCCACGTGGAATG	0.08
GTTGGCACGTGGCCGA	-0.06
CGTAGCACGTGGGATA	-0.13
GGGGACACGTGCGCGT	-0.2
CTTTCCACGTGAGGGG	0.3
TAAGACACGTGATTGG	0.19
GAGGGCACGTGAGGGC	0.13
GGTGACACGTGGCAGT	0
GGTTTCACGTGTCCGG	0.39

Sequence	relative binding free energy [kcal/mol]
ATTTACACGTGTGAGC	0.24
TATGGCACGTGAGCGA	0.12
TGTGTCACGTGCTATA	0.03
CTTTTCACGTGTTCAG	0.2
TGGAGCACGTGATGAA	0.08
TTTGCCACGTGGTTGG	-0.05
TAGAACACGTGGGTGC	-0.13
GGTGCCACGTGTGGTC	-0.04
ATTATCACGTGTTTAG	0.04
ATAATCACGTGTGTTC	0.1
TTTAGCACGTGTACAG	0.02
AAGGTCACGTGGGTGT	-0.06
GTAGCCACGTGGTGGA	-0.11
TGGGGCACGTGAGACA	0.06
CGGTGCACGTGGAAGG	0.01
CAGTGCACGTGATCGG	0.17
GGTCGCACGTGGTGAG	-0.06
AGGGGCACGTGTGGTG	-0.02
CAGGTCACGTGGGTCT	0
TTTTGCACGTGGGTGG	-0.05
TTAGTCACGTGGTTGG	0.11
AGAGACACGTGGTTTG	-0.06
ATTAACACGTGTAGAG	-0.04
GGTCTCACGTGGTATT	0.19
GTCGGCACGTGAGAGT	0.01
GGTTTCACGTGCATTT	0.42

Sequence	relative binding free energy [kcal/mol]
TTTTCCACGTGCGTGT	0.03
GTGGTCACGTGCTAGT	0.07
GGGTGCACGTGGTGTT	-0.05
GGAATCACGTGAGGTT	0.45
TTCGGCACGTGTGGTC	0.01
GGCACCACGTGTTGGG	0.07
AGGTGCACGTGGGTAG	-0.14
GCTCGCACGTGGAGGG	-0.08
GAGTCCACGTGTAAGG	0.2
GTGGTCACGTGGACGA	0.12
ATTGGCACGTGAATGG	0.05
GTTTGCACGTGGTATG	0.06
TTGGGCACGTGTTAAA	0.02
TATATCACGTGGTCGA	0.11
AGCTACACGTGTGGGG	0.14
TTAGGCACGTGGAATC	0.01
GGTTTCACGTGCTGAG	0.26
GTGGTCACGTGTGCTG	0.12
AATAACACGTGGATTG	0.1
TTTGTCACGTGGGTGG	0.01
CGTTTCACGTGGTTGA	0.28
GCGTGCACGTGATGGA	0.19
